Results as given in PubChem BioAssay AID588591 (National Center for Advancing Translational Sciences (NCATS), 2011).
“And” between values parts separate entries of the source, which are not always exact repeats. Equal values may be shown once. The whole screen tested about 390,000 compounds, of which about 4,700 (1.2%) were called active. About 4% were inconclusive and are not listed. Calls come from the whole dose curve; as a rule, active = well fitted inhibition curve with a large enough effect; inconclusive = small, poorly fitted or top-dose-only effect, or another doubt; inactive = no such curve, though single readings can be large or run the other way. This is a selection; strong and weak results do not stand in their true shares. Some structures have more than one record in an assay (separate samples or runs), and their calls can disagree.

biological target: DNA polymerase eta (Homo sapiens) (UniProt Q9Y253); assay: qHTS for Inhibitors of Polymerase Eta; details: recombinant Pol eta, fluorescent DNA replication assay; series mostly up to 114 µM; activity change, negative = inhibition: at the top concentration
Source text: The Y-family of DNA polymerases, such as Pol eta, are specifically involved in DNA repair. Pol eta copies undamaged DNA with a lower fidelity than other DNA-directed polymerases. However, it accurately replicates UV-damaged DNA; when thymine dimers are present, this polymerase inserts the complementary nucleotides in the newly synthesized DNA, thereby bypassing the lesion and suppressing the mutagenic effect of UV-induced DNA damage. […] Thus, while pol eta's (and most likely iota's) normal function is to protect humans against the deleterious consequences of DNA damage, under certain conditions they can have deleterious effects on human health. As a consequence, we propose to utilize a high throughput replication assay to identify small molecule inhibitors of pol eta. In a collaboration between the National Institute of Child Health & Human Development (NICHD) and NIH Chemical Genomics Center, a high-throughput, fluorescent screen was developed to screen the NIH Molecular Libraries Small Molecule Repository (MLSMR). This screen is used to identify inhibitors of pol eta. NIH Chemical Genomics Center [NCGC] NIH Molecular Libraries Probe Centers Network [MLPCN] MLPCN Grant: MH090825 Assay Submitter (PI): Roger Woodgate, NICHD)
Three microliters of reagents (buffer in column 3 and 4 as negative control and 10 nM Pol eta in columns 1, 2, and 5-48) were dispensed into a 1,536-well black solid-bottomed plate. Compounds (23 nL) were transferred via Kalypsys pin tool equipped with 1536-pin array. The plates were then incubated for 15 min at room temperature, and 1 µL substrate (50 nM final concentration) was added to start the reaction and kinetically read twice at 0 min and 10 min on the Viewlux reader
% is set by controls: 0 for no effect and ±100 for the full control effect; potency is the fitted concentration of half-maximal effect.

Sequence of UniProt Q9Y253 (Q9Y253 whole entry, looked up): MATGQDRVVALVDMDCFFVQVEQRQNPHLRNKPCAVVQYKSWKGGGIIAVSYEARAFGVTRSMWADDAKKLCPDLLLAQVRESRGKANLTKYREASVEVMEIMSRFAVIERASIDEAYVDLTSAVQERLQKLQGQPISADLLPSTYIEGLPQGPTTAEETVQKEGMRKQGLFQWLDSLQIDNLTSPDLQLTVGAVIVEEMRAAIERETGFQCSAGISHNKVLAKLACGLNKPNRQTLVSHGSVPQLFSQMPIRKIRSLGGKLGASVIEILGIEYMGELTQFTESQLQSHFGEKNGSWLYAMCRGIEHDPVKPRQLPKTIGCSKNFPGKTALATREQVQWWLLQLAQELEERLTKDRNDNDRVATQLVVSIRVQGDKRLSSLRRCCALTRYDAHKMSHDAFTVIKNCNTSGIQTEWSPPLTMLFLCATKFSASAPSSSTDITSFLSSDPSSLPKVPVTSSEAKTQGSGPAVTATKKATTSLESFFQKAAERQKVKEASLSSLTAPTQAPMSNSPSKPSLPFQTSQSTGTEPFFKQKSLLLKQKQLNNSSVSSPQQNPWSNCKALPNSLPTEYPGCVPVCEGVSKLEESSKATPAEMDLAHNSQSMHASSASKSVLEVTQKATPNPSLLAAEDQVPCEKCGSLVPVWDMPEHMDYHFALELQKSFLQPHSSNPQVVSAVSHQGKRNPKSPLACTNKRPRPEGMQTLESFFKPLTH

Row | SMILES | activity change, negative = inhibition | Potency
1 | C[Se]C[C@H](N)C(=O)O | inactive: -0.968% [at 57.1 µM] | 
2 | CC(=O)[C@H]1CCC2C3CC[C@H]4C[C@@H](O)CC[C@]4(C)C3CC[C@@]21C (some centres not stated) | inactive: -9.89% | 
3 | N#CC(C#N)=NNc1ccc(S(N)(=O)=O)cc1 |  | active: 12.6 µM
4 | N#CC(C#N)=Cc1ccc(O)c(O)c1 | inactive: -5.86% | 
5 | COc1cccc(N2CCN(C(=O)C3CCN(S(=O)(=O)c4ccc5c(c4)oc(=O)n5C)CC3)CC2)c1 | inactive: -3.83% | 
6 | CC(=O)C1CCC2C3CCC4CC(O)CCC4(C)C3CCC12C (configuration not stated) | inactive: -22% | 
7 | CCOC(=O)c1ccc(Nc2nc(C)cc(C)n2)cc1 | inactive: -8.63% | 
8 | CCC(=NCc1cccnc1)c1c(O)n(-c2ccc(Cl)cc2)c(=O)[nH]c1=O | inactive: 74.8% | 
9 | CC[C@@H](CO)NC(=O)[C@@H]1C=C2c3cccc4c3c(cn4C)C[C@H]2N(C)C1 |  | inactive
10 | Cc1ccc(C(=O)N2CCc3cc(CNC(=O)c4ccnn4C)ccc32)cc1 | inactive: 14.3% | 
11 | O=C1NC2NC(=O)N([N+](=O)[O-])C2N1 (configuration not stated) | inactive: 43.2% | 
12 | CC(=O)c1ccc2c(c1)C1C(Cl)C(Sc3ccccc3[N+](=O)[O-])CC1C(C(=O)O)N2 (configuration not stated) |  | active: 3.55 µM
13 | Cc1csc(NC(=O)C(Cl)c2ccccc2)n1 (configuration not stated) (tested in a mixture with another compound) | inactive: 29.3% | 
14 | Nc1nonc1C(=O)N/N=C/c1ccc([N+](=O)[O-])o1 |  | active: 20 µM
15 | CCCCCCC(C)(C)c1ccc([C@@H]2C[C@H](O)CC[C@H]2CCCO)c(O)c1 | inactive: -5.74% | 
16 | CC[C@@H](CO)NC(=O)[C@@H]1C=C2c3cccc4[nH]cc(c34)C[C@H]2N(C)C1 | inactive: -6.6% | 
17 | COc1cc2c(cc1O)C[C@H]1c3c(cc(O)c(OC)c3-2)CCN1C | inactive: -6.36% | 
18 | CCC1(O)C(=O)OCc2c1cc1n(c2=O)Cc2cc3cc(O)ccc3nc2-1 (configuration not stated) |  | active: 17.8 µM
19 | COc1cc2c(cc1OC)-c1c(OC)c(OC)cc3c1C(C2)N(C)CC3 (configuration not stated) | inactive: -24.1% | 
20 | CC(Cc1ccc(O)cc1)NCC(O)c1ccc(O)c(O)c1 (configuration not stated) |  | active: 3.98 µM
21 | Cn1c(O)c(C=NC2CC3CCC2(C)C3(C)C)c(=O)[nH]c1=O (configuration not stated) | inactive: -8.59% | 
22 | Cc1cc(/C=C2\C(=O)NC(=O)N(c3ccc(Cl)cc3)C2=O)c(C)n1-c1sc2c(c1C#N)CCCC2 |  | active: 20 µM
23 | O=C1C=CC(=O)C=C1 | inactive: -16.2% | 
24 | Clc1ccc(C(c2ccc(Cl)cc2)n2cc[n+](CC(OCc3ccc(Cl)cc3Cl)c3ccc(Cl)cc3Cl)c2)cc1 (configuration not stated) | inactive: -22.9% | 

Row | SMILES | activity change, negative = inhibition | Potency
25 | Cc1ccc(/C=C2\C(=O)NC(=O)N(CCc3ccc(F)cc3)C2=O)o1 | inactive: -13.9% | 
26 | Cc1ccc(CN2CCCC(C(=O)c3ccc4c(c3)OCO4)C2)cc1C (configuration not stated) | inactive: 31.1% | 
27 | CCC(CO)NC(=O)C1C=C2c3cccc4[nH]cc(c34)CC2N(C)C1 (configuration not stated) | inactive: 1.97% | 
28 | O=c1c(O)c(-c2ccc(O)c(O)c2)oc2cc(O)cc(O)c12 |  | active: 794 nM and active: 708 nM
29 | C[C@]12CC[C@@H](O)C[C@@H]1CC[C@@H]1[C@@H]2CC[C@]2(C)C(=O)[C@H](O)C[C@@H]12 | inactive: -17.2% | 
30 | O=C1NC(=O)N(Cc2ccc(F)cc2)C(=O)/C1=C\C=C\c1ccco1 |  | active: 20 µM
31 | C/C(=C/CCC(C)[C@H]1CC[C@@]2(C)C3=C(CC[C@]12C)[C@@]1(C)CCC(=O)C(C)(C)[C@@H]1CC3)C(=O)O (some centres not stated) |  | active: 79.4 µM
32 | O=c1[nH]c(=S)n(-c2ccc(Br)cc2)c(O)c1C=Nc1ccc(N2CCOCC2)cc1 | inactive: 24.3% | 
33 | CCN1CCc2ccccc2C1 | inactive: 37.2% | 
34 | NC1C=CC=C(C(=O)O)C1 (configuration not stated) | inactive: -4.43% | 
35 | O=c1oc2ccccc2c(O)c1C(c1ccc([N+](=O)[O-])cc1)c1c(O)c2ccccc2oc1=O |  | active: 20 µM
36 | CN1C(=O)C(=Cc2c(OCc3cnc(Cl)s3)ccc3ccccc23)C(=O)N(C)C1=O | inactive: 25.9% | 
37 | COc1ccc2c(c1O)C13CCN(C)C(C2)C1CCC(=O)C3 (configuration not stated) | inactive: -8.63% | 
38 | CCOC(=O)c1ccc(NC(=O)N2C[C@@H]3C[C@@H](C2)c2cccc(=O)n2C3)cc1 | inactive: -13.4% | 
39 | COc1ccc(CNS(=O)(=O)c2cc3c(cc2C)N(C)CCO3)cc1 | inactive: -18.9% | 
40 | C=C(C)[C@@H]1CC[C@]2(C(=O)O)CC[C@]3(C)[C@H](CC[C@@H]4[C@@]5(C)CC[C@H](O)C(C)(C)[C@@H]5CC[C@]43C)[C@@H]12 | inactive: -8.71% | 
41 | CN(C)C1C(=O)C(C(N)=O)=C(O)C2(O)C(=O)C3=C(O)c4c(O)cccc4C(C)(O)C3C(O)C12 (configuration not stated) | inactive: -9% | 
42 | NCc1cc(=O)[nH]o1 | inactive: -0.877% [at 57.1 µM] | 
43 | CC(=O)OC12COC1CC(O)C1(C)C(=O)C(O)C3=C(C)C(O)CC(O)(C(OC(=O)c4ccccc4)C21)C3(C)C (configuration not stated) | inactive: -16.4% | 
44 | C[C@]12C=CC(=O)C=C1CC[C@@H]1C2=CC[C@]2(C)[C@@H](C(=O)CN3CCN(c4cc(N5CCCC5)nc(N5CCCC5)n4)CC3)CC[C@@H]12 | inactive: -23.9% | 
45 | NC(Cc1cc(O)c(O)cc1O)C(=O)O (configuration not stated) |  | active: 0.282 µM
46 | CCC1(O)C(=O)OCc2c1cc1n(c2=O)Cc2cc3c(N)cccc3nc2-1 (configuration not stated) | inactive: -6.32% | 
47 | Oc1ccccc1O | inactive: 2.02% | 
48 | CCn1c(O)c(C=Nc2ccc(N3CCOCC3)cc2)c(=O)n(CC)c1=S | inactive: 71.3% | 

Row | SMILES | activity change, negative = inhibition | Potency
49 | O=C1NC(=O)N(Cc2ccc(F)cc2)C(=O)/C1=C\c1ccc([N+](=O)[O-])s1 |  | active: 28.2 µM
50 | CCOc1ccc(NS(=O)(=O)c2ccc(Cl)c(N=Nc3c(O)[nH]c(=S)[nH]c3=O)c2)cc1Br |  | active: 20 µM
51 | N#CC1=C(N)Oc2c(c(=O)oc3ccccc23)C1c1ccc([N+](=O)[O-])o1 (configuration not stated) |  | active: 20 µM
52 | COc1ccc(Cc2nccc3cc(OC)c(OC)cc23)cc1OC | inactive: -7.07% | 
53 | NNC(N)=O | inactive: 4.52% [at 57.1 µM] | 
54 | C[C@@H]1CC2C3CC=C4C[C@@H](O)CC[C@]4(C)C3CC[C@]2(C)[C@H]1O (some centres not stated) | inactive: -8.77% | 
55 | CCN1/C(=C/C=C/C2=[N+](CC)c3ccccc3C2(C)C)C(C)(C)c2ccccc21 |  | active: 31.6 µM
56 | COc1cccc(C2C([N+](=O)[O-])=C(N)Oc3c2c(=O)oc2ccccc32)c1 (configuration not stated) | inactive: 3.22% | 
57 | O=c1[nH]c(=O)n(Cc2ccccc2)c(O)c1/C=N/Nc1c(F)c(F)c(F)c(F)c1F | inactive: 14% | 
58 | Cc1c(Cc2ccccc2)c(=O)oc2cc(OCc3ccc(C(=O)O)cc3)ccc12 | inactive: 33.3% | 
59 | CCN(CC)c1ccc(/C=C2\C(=O)NC(=O)N(Cc3ccco3)C2=O)cc1 |  | active: 22.4 µM
60 | Cc1ccc(C=C2C(Cl)=C(Cl)C(Cl)=C2Cl)cc1 |  | active: 11.2 µM
61 | CC(C)CNP(=S)(c1ccccc1)C(C)(C)C (configuration not stated) | inactive: 42.1% | 
62 | Cn1cccc1/C=C1\C(=O)NC(=O)N(Cc2ccccc2Cl)C1=O |  | active: 28.2 µM
63 | CCC(C)/C=C(C)/C=C/C1=CC2=C(Cl)C(=O)C(C)(OC(C)=O)C(=O)C2=CO1 (configuration not stated) | inactive: -15.9% | 
64 | CN1CCN(c2ccc([N+](=O)[O-])c3no[n+]([O-])c23)CC1 |  | active: 89.1 µM
65 | CC(C)c1ccc(N=Nc2c(O)[nH]c(=O)[nH]c2=O)cc1 | inactive: 31.3% | 
66 | Cc1ccc(OCC(=O)N2CCN(Cc3ccc([N+](=O)[O-])cc3)CC2)cc1 | inactive: 43.6% | 
67 | CC(N)[C@H](O)c1ccc(O)c(O)c1 (some centres not stated) |  | active: 3.16 µM
68 | Cc1ccc2c(c1)C(c1ccccc1)=NCC(=O)N2C | inactive: 23.3% | 
69 | O=[N+]([O-])c1cc(O)c(O)c([N+](=O)[O-])c1 | inactive: -29.8% | 
70 | O=S(=O)(c1ccccc1)N1CCCCC1c1cccnc1 (configuration not stated) | inactive: 11.9% | 
71 | CN(C)c1ccc(/C=C/c2cc[n+](C)c3ccccc23)cc1 | inactive: -24.4% | 
72 | O=C1NC(=O)N(CCc2ccc(F)cc2)C(=O)/C1=C\C=C\c1ccccc1 | inactive: -11.5% | 
